# “And” between values parts separate entries of the source, which are not always exact repeats. Identical values can stand only once. Hit rate of the full screen: of about 410,000 compounds, about 5,000 (1.2%) were called active. Inconclusive means that the source gave no clear call. Such entries were picked first, then a sample of the others. Calls come from the whole dose curve; as a rule, active = well fitted inhibition curve with a large enough effect; inconclusive = small, poorly fitted or top-dose-only effect; inactive = no such curve, though single readings can be large or run the other way. A potency beside an inconclusive call is a rough fit, not a confirmed value.
# Experiment: qHTS for Inhibitors of TGF-b; note: nearly all actives have a fitted effect of over 65% in size
# Conditions: HepG2 CAGA-GFP TGF-b/SMAD3 reporter, GFP fluorescence, 18 h, TGF-beta stimulated, 500 pg/mL final; series mostly up to 46.1 µM
# Outline: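 HEPG2 CAGA-GFP, 1000 cells/well; 2 h settle, 37 C; cpd via pin tool; TGF-b 500 pg/mL final; 18 h, 37 C; GFP imaging ex488/em500-530; %Activity normalised to -TGF-b and +DMSO controls; CRC fit, curve class.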
# Potency is the fitted concentration of half-maximal effect; tags give direction and shape of the fitted curve.
row,Compound,Potency
1,CCS(=O)(=O)N1CCc2cc(C(=O)N3CCN(c4cccc(C(F)(F)F)c4)CC3)ccc21,active: 11.2 µM
2,O=C(c1ccc(COc2ccc(Cl)cc2)o1)N1N=C(C(F)F)CC1(O)C(F)F (centres undefined),active: 22.4 µM
3,CC1=NN(C(=O)COc2ccc(C)c(C)c2)C(O)(c2ccccc2)C1 (centres undefined),inactive
4,C#CCOCCOCCOCCNc1nc(N2CCN(C(=O)CCCCCCCCCCNC(=O)[C@H](CCCCN)n3cc(C[C@@H](C)CC)nn3)CC2)nc(N2CCN(C(=O)CCCCCCCCCCNC(=O)[C@H](CCCCN)n3cc(C[C@@H](C)CC)nn3)CC2)n1,"inconclusive: 11.2 µM [inhibitor, partial curve, poor fit]"
5,CCCCn1c(SCC(=O)Nc2nnc(C(C)C)s2)nc2c1c(=O)n(C)c(=O)n2C,inactive
6,O=C(Nc1ccc(Cl)cc1)Nc1cc(S(=O)(=O)N2CCOCC2)ccc1N1CCCC1,"inconclusive: 22.4 µM [inhibitor, single point]"
7,N#Cc1ccc(N2Cc3ccccc3C2=NC(=O)c2cccs2)cc1,inactive
8,CCOc1ccc(-n2c(Cc3ccccc3)nnc2SCc2nc(-c3ccccc3C)no2)cc1,"inconclusive: 15.8 µM [inhibitor, partial curve, poor fit]"
9,COc1cc(CCC(=O)Nc2ccc(Cl)c(C(F)(F)F)c2)cc(OC)c1OC,"inconclusive: 35.5 µM [inhibitor, single point]"
10,CCOC(=O)c1c(C)[nH]c(CCC(=O)NCCCN2CCN(c3cccc(Cl)c3)CC2)c1C,"inconclusive: 17.8 µM [inhibitor, partial curve, poor fit]"
11,CCOc1ccc(C(=O)/C=C/c2cc(OC)c(OC)c(OC)c2)cc1,"inconclusive: 17.8 µM [inhibitor, single point]"
12,S=C(NCCc1ccc(Cl)cc1)NCc1ccccc1,"inconclusive: 14.1 µM [inhibitor, partial curve, poor fit]"
13,CCc1cc(=O)n2[nH]c(-c3ccccc3)c(-c3ccccc3)c2n1,inactive
14,O=C(CSc1nc(-c2cccs2)cc(C(F)(F)F)n1)Nc1cc(OCC(F)(F)F)cc([N+](=O)[O-])c1,inactive
15,Cc1cc(C(=O)Nc2cccc3c2O[C@@H](CN(C)S(=O)(=O)c2ccccc2)[C@H](C)CN([C@@H](C)CO)C3=O)n(C)n1,"inconclusive: 5.62 µM [inhibitor, single point]"
16,COc1ccc(-c2noc(CCC(=O)NCCc3ccccc3)n2)cc1,inactive
17,COC(=O)c1ccc(C2Nc3c(C)cc(C)cc3C3C=CCC32)cc1 (centres undefined),inactive
18,Cc1ccccc1CSc1cn(CCNC(=O)c2cccs2)c2ccccc12,"inconclusive: 10 µM [inhibitor, partial curve, poor fit]"
19,CN(C)c1nc(C#N)nc(N2CCOCC2)n1,inactive
20,COc1ccc(C(CNC(=O)COc2ccc(C)c(C)c2)N2CCCCC2)cc1 (centres undefined),"inconclusive: 10 µM [inhibitor, partial curve, poor fit]"
21,CCC(O)c1nc2ccccc2n1Cc1cccc(Cl)c1 (centres undefined),inactive
22,COc1cc(C(CC(=O)N2CCCC2)c2c(OC)cc(OC)c3c(-c4ccccc4)cc(=O)oc23)cc(OC)c1OC (centres undefined),"inconclusive: 10 µM [inhibitor, partial curve] and inconclusive: 15.8 µM [inhibitor, single point]"

row,Compound,Potency
1,Cc1ccc2c(c1)C(=O)C(=O)N2CCOc1ccccc1,"inconclusive: 35.5 µM [inhibitor, single point]"
2,O=[N+]([O-])c1ccc(O/N=[N+](\[O-])N2CCCC2)c([N+](=O)[O-])c1,"inconclusive: 25.1 µM [inhibitor, single point]"
3,CNC(=O)NC(=O)C(C)OC(=O)c1c2c(nc3ccccc13)/C(=C/c1cccs1)CC2 (centres undefined),"inconclusive: 35.5 µM [inhibitor, partial curve, poor fit]"
4,Cc1c(CCO)sc[n+]1CC(=O)c1ccc(F)cc1,"inconclusive: 7.94 µM [inhibitor, partial curve, poor fit]"
5,COc1ccccc1NC(=S)NNC(=O)c1nn(C)c(C)c1Br,inactive
6,CC1(C(=O)Nc2ccccc2)Cc2c(-c3cccc(C(F)(F)F)c3)ccnc2O1 (centres undefined),"inconclusive: 22.4 µM [inhibitor, single point]"
7,Cc1ccc(/C=C/c2nc3ccccc3c(=O)[nH]2)cc1,inactive
8,CCN(CC)S(=O)(=O)c1ccc(C(=O)OCCN2C(=O)CCC2=O)cc1,"inconclusive: 14.1 µM [inhibitor, partial curve, poor fit]"
9,COc1ccc(CC(=O)Nc2ccc(S(=O)(=O)Nc3ncccn3)cc2)cc1,"inconclusive: 15.8 µM [inhibitor, single point]"
10,Cc1c(C(=O)N2CCC(Cc3ccccc3)CC2)cccc1[N+](=O)[O-],"inconclusive: 3.55 µM [inhibitor, single point]"
11,COc1ccc2ccc(O)c(CN(C)CC(=O)Nc3ccccc3C(F)(F)F)c2c1,"inconclusive: 35.5 µM [inhibitor, single point]"
12,CCc1cc(Cn2nc(-c3ccccc3C)cc2C(=O)O)on1,"inconclusive: 0.891 µM [inhibitor, full curve, poor fit]"
13,O=C(Nc1cccc(NC(=O)N2CCN(c3ccccc3)CC2)c1)N1CCN(c2ccccc2)CC1,"inconclusive: 35.5 µM [inhibitor, single point]"
14,Cc1cc2ccccn2c1C(=O)c1cccc(F)c1,"inconclusive: 15.8 µM [inhibitor, single point]"
15,CN(C(=O)OC(C)(C)C)c1ccc(-c2nc3ccccc3s2)cc1,"inconclusive: 7.94 µM [inhibitor, partial curve, poor fit]"
16,O=C(CCN1CCC(c2ccccc2)C1)c1ccc2c(c1)OCCO2 (centres undefined),"inconclusive: 7.08 µM [inhibitor, full curve, poor fit]"
17,Cc1c(CNCc2ccc(Cl)cc2)c(C(=O)O)c(C)n1Cc1ccc(F)cc1,inactive
18,CCOc1ccc(CNS(=O)(=O)c2ccc3[nH]c4c(c3c2)CCCC4)cc1OC,"inconclusive: 15.8 µM [inhibitor, single point]"
19,COc1ccc(CN2CN(C(C)C)CSC2=S)cc1,"inconclusive: 35.5 µM [inhibitor, single point]"
20,Cc1ccc(CSc2nnc(Cn3c(=O)sc4ccccc43)n2C)cc1,"inconclusive: 5.62 µM [inhibitor, single point]"
21,COc1cccc2sc(N(CCCN(C)C)C(=O)CCS(=O)(=O)c3ccccc3)nc12,active: 1.12 µM
22,Cc1nc(SCC(=O)Nn2c(-c3ccccc3)nc3ccccc3c2=O)n[nH]1,"inconclusive: 3.55 µM [inhibitor, partial curve, poor fit]"

row,Compound,Potency
1,Cc1ccc(Cl)cc1N1CCN(C(=O)c2cc(S(=O)(=O)N3CCC(C)CC3)cn2C)CC1,active: 7.08 µM
2,Cc1ccc(OC(=O)c2ccccc2C(=O)OCC(F)(F)C(F)F)cc1,"inconclusive: 15.8 µM [inhibitor, single point]"
3,Cc1ccnc2cc(Cl)c(Cl)cc12,inactive
4,Cc1ccc(O)c(CNCCNCc2cc(C)ccc2O)c1,"inconclusive: 35.5 µM [inhibitor, single point]"
5,O=C(COc1ccc(Cl)cc1Br)NCC(c1ccco1)N1CCCC1 (centres undefined),"inconclusive: 0.794 µM [inhibitor, full curve, poor fit]"
6,CCn1nc(C)cc1C(=O)Sc1cccc(Cl)c1,"inconclusive: 15.8 µM [inhibitor, single point]"
7,COc1ccc(CCN2C(=O)N(c3ccc(F)cc3)C(=O)C2CC(=O)Nc2ccccc2)cc1 (centres undefined),"inconclusive: 35.5 µM [inhibitor, single point]"
8,CCN(CC(=O)Nc1ccccc1C(F)(F)F)C(=O)c1ccc2[nH]c3c(c2c1)CC(C)CC3 (centres undefined),"inconclusive: 22.4 µM [inhibitor, single point]"
9,NC(=O)C1CCN(C(=O)CC2(CC(=O)O)CCCC2)CC1,inactive
10,COc1cccc(CN2CCNC(=O)C2CC(=O)N(C)Cc2cnccn2)c1OC (centres undefined),inactive
11,COCCCNC(=O)CSc1nc(-c2cccc(F)c2)[nH]c1-c1ccccc1,"inconclusive: 35.5 µM [inhibitor, single point]"
12,O=C(c1ccc(F)cc1F)N1CCCC(c2nc(-c3ccc(F)cc3)no2)C1 (centres undefined),"inconclusive: 3.55 µM [inhibitor, partial curve, poor fit]"
13,O=C(CN1CCN(Cc2ccccc2Cl)C1=O)NCc1ccccc1Cl,"inconclusive: 35.5 µM [inhibitor, partial curve, poor fit]"
14,CC1C/C(=N\NC(=O)c2cccnc2)CC(C)(C)C1 (centres undefined),inactive
15,Cc1c2cnn(CC(=O)NCc3ccccc3)c(=O)c2c(C)n1Cc1cccc(Cl)c1,"inconclusive: 10 µM [inhibitor, partial curve, poor fit]"
16,O=C(C=Cc1ccccc1)CC(c1ccccc1)N1CCOCC1 (centres undefined),"inconclusive: 25.1 µM [inhibitor, single point]"
17,CCOc1ccc(-n2c(C)nc3c(cnn3-c3ccc(C)cc3)c2=O)cc1,"inconclusive: 5.01 µM [inhibitor, single point]"
18,C[C@]1(O)CC(=O)C=C[C@H]1Nc1ccccc1,"inconclusive: 25.1 µM [inhibitor, single point]"
19,CC1=Nc2cc(C(=O)N3CCCC3)ccc2Sc2c(C)ccc(C)c21,"inconclusive: 35.5 µM [inhibitor, single point]"
20,O=S(=O)(c1ccc(-n2cnnn2)cc1)N1CCN(c2ccccc2F)CC1,inactive
